These results are taken from patent publication US8304419B2, “Chemical compounds” (priority 2007, dated 2012).

Structures are written as SMILES. Counter-ions that a name gives are not always drawn.

Holding throughout (assay): microbe, parasite or virus in culture
One experiment relates to HIV-1 K103N RT mutant. The conditions noted are these: Human immunodeficiency virus 1, HeLa, read-out: K103N activity level, HeLa-CD4-LTR-β-gal cells, K103N virus.
For the next experiment, the system named is HIV-1 V106A RT mutant. The following applies: Human immunodeficiency virus 1, HeLa, read-out: V106A activity level, HeLa-CD4-LTR-β-gal cells, V106A virus.
A further experiment deals with HIV-1 Y181C RT mutant. The following applies: Human immunodeficiency virus 1, HeLa, read-out: Y181C activity level, HeLa-CD4-LTR-β-gal cells, Y181C virus.

With `COc1ccc2[nH]c(C(=O)NCc3ccc(Cl)c(Oc4cc(Cl)cc(C#N)c4)c3F)c(NC(C)=O)c2c1` [Example 56, 3-(acetylamino)-N-({4-chloro-3-[(3-chloro-5-cyanophenyl)oxy]-2-fluorophenyl}methyl)-5-(methyloxy)-1H-indole-2-carboxamide trifluoroacetate], the IC50 with HIV-1 K103N RT mutant, in the experiment on HIV-1 V106A RT mutant and with HIV-1 Y181C RT mutant was more than 1000 nM in each case.

Take `N#Cc1cc(Cl)cc(Oc2c(Cl)ccc(CNC(=O)c3ccc[nH]3)c2F)c1` [Example 57, N-({4-chloro-3-[(3-chloro-5-cyanophenyl)oxy]-2-fluorophenyl}methyl)-1H-pyrrole-2-carboxamide]: the IC50 in the experiment with HIV-1 K103N RT mutant is less than 10 nM; in the experiment on HIV-1 V106A RT mutant, 10 to 1000 nM; in the experiment on HIV-1 Y181C RT mutant, less than 10 nM.

On to `N#Cc1cc(Cl)cc(Oc2c(Cl)ccc(CNC(=O)c3ncc[nH]3)c2F)c1` [Example 59, N-({4-chloro-3-[(3-chloro-5-cyanophenyl)oxy]-2-fluorophenyl}methyl)-1H-imidazole-2-carboxamide trifluoroacetate], for which the IC50 in the experiment with HIV-1 K103N RT mutant, in the experiment with HIV-1 V106A RT mutant and with HIV-1 Y181C RT mutant was less than 10 nM each time.

As for `N#Cc1cc(Cl)cc(Oc2c(Cl)ccc(CNC(=O)c3[nH]c4cc(O)ccc4c3Br)c2F)c1` [Example 61, 3-bromo-N-({4-chloro-3-[(3-chloro-5-cyanophenyl)oxy]-2-fluorophenyl}methyl)-6-hydroxy-1H-indole-2-carboxamide trifluoroacetate], the IC50 in the experiment on HIV-1 K103N RT mutant, with HIV-1 V106A RT mutant and in the experiment on HIV-1 Y181C RT mutant was less than 10 nM throughout.

For the molecule `Cc1cc(C)c(C(=O)NCc2ccc(Cl)c(Oc3cc(Cl)cc(C#N)c3)c2F)[nH]1` [Example 62, N-({4-chloro-3-[(3-chloro-5-cyanophenyl)oxy]-2-fluorophenyl}methyl)-3,5-dimethyl-1H-pyrrole-2-carboxamide trifluoroacetate], the IC50 in the experiment on HIV-1 K103N RT mutant, in the experiment on HIV-1 V106A RT mutant and in the experiment on HIV-1 Y181C RT mutant was less than 10 nM throughout.

In the case of `Cn1cnc(C(=O)NCc2ccc(Cl)c(Oc3cc(Cl)cc(C#N)c3)c2F)c1` [Example 64, N-({4-chloro-3-[(3-chloro-5-cyanophenyl)oxy]-2-fluorophenyl}methyl)-1-methyl-1H-imidazole-4-carboxamide trifluoroacetate], the IC50 in the experiment with HIV-1 K103N RT mutant, with HIV-1 V106A RT mutant and in the experiment on HIV-1 Y181C RT mutant was 10 to 1000 nM in each case.

Turning to `CSc1nc(C(=O)NCc2ccc(Cl)c(Oc3cc(Cl)cc(C#N)c3)c2F)cn1C(c1ccccc1)(c1ccccc1)c1ccccc1` [Example 65, N-({4-chloro-3-[(3-chloro-5-cyanophenyl)oxy]-2-fluorophenyl}methyl)-2-(methylthio)-1-(triphenylmethyl)-1H-imidazole-4-carboxamide trifluoroacetate], the IC50 with HIV-1 K103N RT mutant, in the experiment with HIV-1 V106A RT mutant and in the experiment on HIV-1 Y181C RT mutant was 10 to 1000 nM in each case.

As for `CSc1ncc(C(=O)NCc2ccc(Cl)c(Oc3cc(Cl)cc(C#N)c3)c2F)[nH]1` [Example 66, N-({4-chloro-3-[(3-chloro-5-cyanophenyl)oxy]-2-fluorophenyl}methyl)-2-(methylthio)-1H-imidazole-4-carboxamide trifluoroacetate], the IC50 in the experiment with HIV-1 K103N RT mutant, in the experiment with HIV-1 V106A RT mutant and with HIV-1 Y181C RT mutant was 10 to 1000 nM throughout.

As to `Cn1cncc1C(=O)NCc1ccc(Cl)c(Oc2cc(Cl)cc(C#N)c2)c1F` [Example 67, N-({4-chloro-3-[(3-chloro-5-cyanophenyl)oxy]-2-fluorophenyl}methyl)-1-methyl-1H-imidazole-5-carboxamide trifluoroacetate], the values for the IC50 with HIV-1 K103N RT mutant, in the experiment on HIV-1 V106A RT mutant and with HIV-1 Y181C RT mutant were 10 to 1000 nM, more than 1000 nM and more than 1000 nM, respectively.

With `N#Cc1cc(Cl)cc(Oc2c(Cl)ccc(CNC(=O)c3[nH]cnc3[N+](=O)[O-])c2F)c1` [Example 68, N-({4-chloro-3-[(3-chloro-5-cyanophenyl)oxy]-2-fluorophenyl}methyl)-4-nitro-1H-imidazole-5-carboxamide trifluoroacetate], the IC50 in the experiment with HIV-1 K103N RT mutant, in the experiment on HIV-1 V106A RT mutant and in the experiment with HIV-1 Y181C RT mutant was less than 10 nM each time.

For `N#Cc1cc(Cl)cc(Oc2c(Cl)ccc(CNC(=O)c3n[nH]c([N+](=O)[O-])c3Br)c2F)c1` [Example 69, 4-bromo-N-({4-chloro-3-[(3-chloro-5-cyanophenyl)oxy]-2-fluorophenyl}methyl)-5-nitro-1H-pyrazole-3-carboxamide trifluoroacetate], the IC50 with HIV-1 K103N RT mutant, with HIV-1 V106A RT mutant and with HIV-1 Y181C RT mutant was 10 to 1000 nM each time.

Consider `N#Cc1cc(Cl)cc(Oc2c(Cl)ccc(CNC(=O)c3cc([N+](=O)[O-])c[nH]3)c2F)c1` [Example 70, N-({4-chloro-3-[(3-chloro-5-cyanophenyl)oxy]-2-fluorophenyl}methyl)-4-nitro-1H-pyrrole-2-carboxamide trifluoroacetate], for which the figures for the IC50 in the experiment with HIV-1 K103N RT mutant, with HIV-1 V106A RT mutant and in the experiment with HIV-1 Y181C RT mutant were less than 10 nM, 10 to 1000 nM and less than 10 nM, respectively.

Regarding `Cc1[nH]c(C(=O)NCc2ccc(Cl)c(Oc3cc(Cl)cc(C#N)c3)c2F)c(C)c1C#N` [Example 71, N-({4-chloro-3-[(3-chloro-5-cyanophenyl)oxy]-2-fluorophenyl}methyl)-4-cyano-3,5-dimethyl-1H-pyrrole-2-carboxamide trifluoroacetate], the IC50 in the experiment with HIV-1 K103N RT mutant, in the experiment with HIV-1 V106A RT mutant and in the experiment on HIV-1 Y181C RT mutant was less than 10 nM throughout.

Consider `Cn1ccnc1C(=O)NCc1ccc(Cl)c(Oc2cc(Cl)cc(C#N)c2)c1F` [Example 72, N-({4-chloro-3-[(3-chloro-5-cyanophenyl)oxy]-2-fluorophenyl}methyl)-1-methyl-1H-imidazole-2-carboxamide trifluoroacetate], for which the IC50 is 10 to 1000 nM in the experiment on HIV-1 K103N RT mutant, more than 1000 nM in the experiment with HIV-1 V106A RT mutant and 10 to 1000 nM in the experiment on HIV-1 Y181C RT mutant.

As to `COc1ccc2[nH]c(C(=O)NCc3ccc(Cl)c(Oc4cc(Cl)cc(C#N)c4)c3F)cc2c1Br` [Example 73, 4-bromo-N-({4-chloro-3-[(3-chloro-5-cyanophenyl)oxy]-2-fluorophenyl}methyl)-5-(methyloxy)-1H-indole-2-carboxamide trifluoroacetate], the IC50 in the experiment with HIV-1 K103N RT mutant, in the experiment on HIV-1 V106A RT mutant and in the experiment with HIV-1 Y181C RT mutant was 10 to 1000 nM in each case.

`CC(=O)NCc1ccc2cc(C(=O)NCc3ccc(Cl)c(Oc4cc(Cl)cc(C#N)c4)c3F)[nH]c2c1` [Example 74, 6-[(acetylamino)methyl]-N-({4-chloro-3-[(3-chloro-5-cyanophenyl)oxy]-2-fluorophenyl}methyl)-1H-indole-2-carboxamide trifluoroacetate]: the IC50 with HIV-1 K103N RT mutant, with HIV-1 V106A RT mutant and in the experiment on HIV-1 Y181C RT mutant was less than 10 nM each time.

With `N#Cc1cc(Cl)cc(Oc2c(Cl)ccc(CNC(=O)c3[nH]c4ccccc4c3Cl)c2F)c1` [Example 75, 3-chloro-N-({4-chloro-3-[(3-chloro-5-cyanophenyl)oxy]-2-fluorophenyl}methyl)-1H-indole-2-carboxamide trifluoroacetate], the IC50 in the experiment with HIV-1 K103N RT mutant is less than 10 nM; with HIV-1 V106A RT mutant it was less than 10 nM; in the experiment on HIV-1 Y181C RT mutant it was 10 to 1000 nM.

Consider `CCN(CC)S(=O)(=O)c1c[nH]c(C(=O)NCc2ccc(Cl)c(Oc3cc(Cl)cc(C#N)c3)c2F)c1` [Example 76, N-({4-chloro-3-[(3-chloro-5-cyanophenyl)oxy]-2-fluorophenyl}methyl)-4-[(diethylamino)sulfonyl]-1H-pyrrole-2-carboxamide trifluoroacetate], for which the figures for the IC50 with HIV-1 K103N RT mutant, with HIV-1 V106A RT mutant and with HIV-1 Y181C RT mutant were 10 to 1000 nM, more than 1000 nM and 10 to 1000 nM, respectively.

`CCc1nc(Cl)c(C(=O)NCc2ccc(Cl)c(Oc3cc(Cl)cc(C#N)c3)c2F)[nH]1` [Example 77, 4-chloro-N-({4-chloro-3-[(3-chloro-5-cyanophenyl)oxy]-2-fluorophenyl}methyl)-2-ethyl-1H-imidazole-5-carboxamide trifluoroacetate]: the IC50 in the experiment with HIV-1 K103N RT mutant, in the experiment with HIV-1 V106A RT mutant and in the experiment on HIV-1 Y181C RT mutant was less than 10 nM in each case.

As for `CC(=O)c1ccc2cc(C(=O)NCc3ccc(Cl)c(Oc4cc(Cl)cc(C#N)c4)c3F)[nH]c2c1` [Example 78, 6-acetyl-N-({4-chloro-3-[(3-chloro-5-cyanophenyl)oxy]-2-fluorophenyl}methyl)-1H-indole-2-carboxamide trifluoroacetate], the IC50 is less than 10 nM with HIV-1 K103N RT mutant, 10 to 1000 nM with HIV-1 V106A RT mutant and 10 to 1000 nM with HIV-1 Y181C RT mutant.

On to `N#Cc1cc(Cl)cc(Oc2c(Cl)ccc(CNC(=O)c3cc4ccc(C#N)cc4[nH]3)c2F)c1` [Example 79, N-({4-chloro-3-[(3-chloro-5-cyanophenyl)oxy]-2-fluorophenyl}methyl)-6-cyano-1H-indole-2-carboxamide trifluoroacetate], for which the IC50 with HIV-1 K103N RT mutant was less than 10 nM; in the experiment with HIV-1 V106A RT mutant, 10 to 1000 nM; with HIV-1 Y181C RT mutant, less than 10 nM.

For `CC(=O)c1ccc2[nH]c(C(=O)NCc3ccc(Cl)c(Oc4cc(Cl)cc(C#N)c4)c3F)cc2c1` [Example 80, 5-acetyl-N-({4-chloro-3-[(3-chloro-5-cyanophenyl)oxy]-2-fluorophenyl}methyl)-1H-indole-2-carboxamide trifluoroacetate], the IC50 was less than 10 nM with HIV-1 K103N RT mutant, 10 to 1000 nM in the experiment with HIV-1 V106A RT mutant and less than 10 nM in the experiment on HIV-1 Y181C RT mutant.

Regarding `CCc1c(C(=O)NCc2ccc(Cl)c(Oc3cc(Cl)cc(C#N)c3)c2F)[nH]c2ccc(OC)cc12` [Example 81, N-({4-chloro-3-[(3-chloro-5-cyanophenyl)oxy]-2-fluorophenyl}methyl)-3-ethyl-5-(methyloxy)-1H-indole-2-carboxamide trifluoroacetate], the IC50 was less than 10 nM in the experiment with HIV-1 K103N RT mutant, 10 to 1000 nM in the experiment with HIV-1 V106A RT mutant and 10 to 1000 nM in the experiment on HIV-1 Y181C RT mutant.
